{"source": "PubChem BioAssay AID504832", "about": "(National Center for Advancing Translational Sciences (NCATS), 2011)", "note": "In all, about 310,000 compounds went through this assay and about 18,000 (5.8%) were called active. This list was built around the results that the source calls inconclusive (neither active nor inactive); the mix of calls is not that of the screen. Calls follow the shape of the dose curve; as a rule, active = well fitted inhibition curve with a large enough effect; inconclusive = small, poorly fitted or top-dose-only effect, or another doubt; inactive = no such curve, though single readings can be large or run the other way. No potency is given beside an inconclusive call; the fits are too rough. Potency is read from the fitted curve at half-maximal effect; tags tell the direction and shape of the fitted curve.", "data": [{"test": "Primary qHTS for delayed death inhibitors of the malarial parasite plastid, 48 hour incubation", "settings": "P. falciparum luciferase growth in erythrocytes; series mostly up to 28.7 µM", "how_it_was_run": "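Luciferase-expressing parasites in RBCs, 2% Hct / 0.1% parasitemia final; RPMI 1640 + 0.5% Albumax; 37 C, 5% CO2, one generation; luminescence read-out, lower signal = inhibition.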", "values": [{"smiles": "O=S(=O)(c1ccccc1)N1CCC(Oc2ccc(-n3cnnn3)cc2)CC1", "Potency": "inconclusive [inhibitor, full curve, poor fit]"}, {"smiles": "CC1CC(C)CN(c2ncc3c(n2)CC(c2ccccc2)CC3=O)C1", "note": "(stereo not drawn)", "Potency": "inconclusive [inhibitor, partial curve]"}, {"smiles": "COc1cc(NC(=O)c2ccc3nsnc3c2)cc(OC)c1OC", "Potency": "inactive"}, {"smiles": "COc1ccc(Nc2nc(N)c([N+](=O)[O-])c(NC3CCCCC3)n2)cc1", "Potency": "inconclusive [inhibitor, single point]"}, {"smiles": "CCn1c(SCc2ccc(OC)c(F)c2)nc2ccccc2c1=O", "Potency": "inconclusive [inhibitor, partial curve, poor fit]"}, {"smiles": "CCOC(=O)c1[nH]c(C)c(C(=O)OCCOc2cccc(C)c2)c1C", "Potency": "active: 7.38 µM"}, {"smiles": "CCC(CC)C(=O)NCc1ccc2c(c1)cc(C)n2C", "Potency": "inactive"}, {"smiles": "Cc1cc(C)n2c(SCc3nnc(-c4cccs4)o3)nnc2n1", "Potency": "inconclusive [inhibitor, partial curve]"}, {"smiles": "Cc1ccc(S(=O)(=O)c2nc(-c3ccco3)oc2SC(C)C)cc1", "Potency": "inconclusive [inhibitor, single point]"}, {"smiles": "CCCCCN1C(=O)Cn2c(nc3ccccc3c2=O)C1C", "note": "(stereo not drawn)", "Potency": "inactive"}, {"smiles": "COc1ccccc1NC(=S)NCC1CCC(CNC(=S)Nc2ccccc2OC)CC1", "note": "(stereo not drawn)", "Potency": "inconclusive [inhibitor, single point]"}, {"smiles": "O=C(CSc1nc(=O)[nH]c2c1CCCC2)Nc1ccc(F)cc1F", "Potency": "inconclusive [inhibitor, single point]"}, {"smiles": "CC(C)=CCC/C(C)=C/CC/C(C)=C/CC/C=C(\\C)CC/C=C(\\C)CCC=C(C)C", "Potency": "inactive"}, {"smiles": "COc1ccc(CNC(=O)C(c2ccco2)N(C(=O)CNS(=O)(=O)c2ccccc2)c2ccccc2C)cc1", "note": "(stereo not drawn)", "Potency": "inconclusive [inhibitor, partial curve]"}, {"smiles": "Brc1ccccc1-c1nc2c3ccccc3ncn2n1", "Potency": "inactive"}, {"smiles": "CCOC(=O)c1ccc(Nc2ncnc3c2cnn3C)cc1", "Potency": "inconclusive [inhibitor, single point]"}, {"smiles": "CC1CCC(C#N)(N(C)C(=O)CSc2nnc(C3CC3)n2C2CC2)CC1", "note": "(stereo not drawn)", "Potency": "inconclusive [inhibitor, single point]"}, {"smiles": "c1ccc(Nc2ccccn2)nc1", "Potency": "inactive"}, {"smiles": "C=C1N(C)c2cc([N+](=O)[O-])c(N)cc2C1(C)C", "Potency": "inconclusive [inhibitor, partial curve, poor fit]"}, {"smiles": "CCCCn1nnc(NC(=O)c2ccc([N+](=O)[O-])cc2Cl)n1", "Potency": "inactive"}, {"smiles": "CCOC(=O)c1cnc2ccccc2c1NCc1ccco1", "Potency": "inconclusive [inhibitor, single point]"}, {"smiles": "Cc1onc(-c2ccccc2)c1C(=O)OCC(=O)Nc1ccc2c(c1)OCO2", "Potency": "inconclusive [inhibitor, single point]"}, {"smiles": "Cc1c(CCO)sc[n+]1CC(=O)OCCC12CC3CC(CC(C3)C1)C2", "Potency": "active: 5.22 µM"}, {"smiles": "N/C(=N\\OC(=O)CCCC(=O)O)c1ncc(C(F)(F)F)cc1Cl", "Potency": "inconclusive [inhibitor, full curve, poor fit]"}, {"smiles": "Oc1ccccc1-[n+]1c(-c2ccccc2)cc(-c2ccccc2)cc1-c1ccccc1", "Potency": "active: 1.47 µM"}, {"smiles": "CC/C(=N\\NC(=O)c1ccccc1O)c1c(O)n(C2CCCCC2)c(=O)[nH]c1=O", "Potency": "inconclusive [inhibitor, partial curve, poor fit]"}, {"smiles": "CCOC(=O)C1(Cc2cccc(OC)c2)CCCN(Cc2ccc(NC(C)=O)cc2)C1", "note": "(stereo not drawn)", "Potency": "inconclusive [inhibitor, full curve, poor fit]"}, {"smiles": "O=C(CSc1nc2ccc(NC(=O)C3CCCCC3)cc2s1)NCC1CCCO1", "note": "(stereo not drawn)", "Potency": "inconclusive [inhibitor, single point]"}, {"smiles": "CNC(=O)c1[nH]cnc1C(=O)N[C@@H](CC(C)C)C(=O)OCc1ccccc1", "Potency": "inconclusive [inhibitor, single point]"}, {"smiles": "Cc1ccc(/C=N/NC(=O)c2nnn(-c3nonc3N)c2-c2ccccc2)o1", "Potency": "inconclusive [inhibitor, partial curve]"}, {"smiles": "CC(C)CCn1c(N2CCc3ccccc3C2)nc2c1c(=O)[nH]c(=O)n2C", "Potency": "inconclusive [inhibitor, partial curve, poor fit]"}, {"smiles": "CCc1c(C#N)c(SCCC(=O)Nc2ccc(F)cc2)nc2c1C(=O)CC(C)(C)C2", "Potency": "inconclusive [inhibitor, single point]"}, {"smiles": "Cc1ccc(C2=C(O)c3ccccc3C(=O)C2=O)cc1", "Potency": "inconclusive [inhibitor, partial curve, poor fit]"}, {"smiles": "COc1cc2ncnc(NCc3cc(F)ccc3F)c2cc1OC", "Potency": "inconclusive [inhibitor, single point]"}, {"smiles": "COc1ccc(OC)c(NC(=O)CN2CCN(C(=O)c3ccco3)CC2)c1", "Potency": "inconclusive [inhibitor, single point]"}, {"smiles": "C#CCNC(=O)C1=C[C@H](c2ccc(Br)cc2)C[C@H](OCCCCO)O1", "Potency": "inconclusive [inhibitor, full curve]"}, {"smiles": "CO/N=C(\\Cn1ncc(N2CCCC2)c(Br)c1=O)c1ccc(Cl)cc1", "Potency": "inconclusive [inhibitor, full curve, poor fit]"}, {"smiles": "Cc1oc(-c2ccc(Cl)cc2)nc1CS(=O)CC(=O)NCCCN1CCN(Cc2ccccc2)CC1", "note": "(stereo not drawn)", "Potency": "inconclusive [inhibitor, single point]"}, {"smiles": "Cc1cccc(N(C(=O)c2csnn2)C(C(=O)NCc2ccccc2)c2ccc(C)o2)c1", "note": "(stereo not drawn)", "Potency": "inconclusive [inhibitor, single point]"}, {"smiles": "COc1ccc2c(CCNC(=O)/C=C/c3ccc(OC)c(OC)c3)c[nH]c2c1", "Potency": "inconclusive [inhibitor, partial curve]"}, {"smiles": "CN(C)CCN1C(=O)C(=O)/C(=C(/O)c2ccc(S(=O)(=O)N3CCOCC3)cc2)C1c1ccc(F)cc1", "note": "(stereo not drawn)", "Potency": "inactive"}, {"smiles": "COc1ccccc1N1CCN(C(=O)Cc2c(C(=O)O)[nH]c3ccc(Cl)cc23)CC1", "Potency": "active: 10.4 µM"}, {"smiles": "CC(C)CCNc1nc(N)c([N+](=O)[O-])c(NCCO)n1", "Potency": "inconclusive [inhibitor, partial curve, poor fit]"}, {"smiles": "CN(C)C(=O)c1ccc(NC(=O)CSc2nnc(-c3cccs3)n2N)cc1", "Potency": "inactive"}, {"smiles": "CSCCC(NC(=O)c1ccccc1)C(=O)Nc1ccc(NC(C)=O)cc1", "note": "(stereo not drawn)", "Potency": "inactive"}, {"smiles": "CCOC(=O)c1ccc(N2C(=O)CC(N(C)CCc3ccc(OC)c(OC)c3)C2=O)cc1", "note": "(stereo not drawn)", "Potency": "inconclusive [inhibitor, partial curve, poor fit]"}, {"smiles": "CC1CC(C)CN(CC(=O)NCCc2ccc(S(N)(=O)=O)cc2)C1", "note": "(stereo not drawn)", "Potency": "inactive"}, {"smiles": "C=CCSc1nc(N)c(C#N)c(-c2ccc(C)cc2)c1C#N", "Potency": "inconclusive [inhibitor, single point]"}, {"smiles": "CCOC(=O)c1c(-c2ccc(F)cc2)csc1NC(=O)CCN1CCOCC1", "Potency": "inconclusive [inhibitor, partial curve]"}, {"smiles": "COc1cc(OC)c(OC)cc1/C=N/NC(=O)c1ccc2nc[nH]c2c1", "Potency": "inactive"}, {"smiles": "CCOC(=O)c1ccc(S(=O)(=O)NC2CCCCCCC2)n1C", "Potency": "inconclusive [inhibitor, single point]"}, {"smiles": "CC(=O)Nc1ccc(S(=O)(=O)Nc2ccc(F)c([N+](=O)[O-])c2)cc1", "Potency": "inactive"}, {"smiles": "Cc1cc(NC(=O)CSc2nnc(Nc3ccccc3C)s2)no1", "Potency": "inconclusive [inhibitor, single point]"}, {"smiles": "COc1ccc(CN(Cc2ccc(C(=O)O)cc2)C(=S)Nc2ccccc2Cl)cc1OC", "Potency": "inconclusive [inhibitor, single point]"}, {"smiles": "COc1ccc(OC)c(/C=C2\\SC(=S)N(C(C(=O)O)c3ccccc3)C2=O)c1", "note": "(stereo not drawn)", "Potency": "inconclusive [inhibitor, full curve, poor fit]"}, {"smiles": "COc1ccc(S(=O)(=O)Nc2ccc3c(c2)N(C(C)=O)CCC3)cc1OC", "Potency": "inconclusive [inhibitor, partial curve, poor fit]"}, {"smiles": "COc1ccccc1N=Cc1c(C)[nH]n(-c2ccc(C)cc2C)c1=O", "Potency": "inactive"}, {"smiles": "Brc1ccccc1CN1CCC(N2CCCCC2)CC1", "Potency": "inactive"}, {"smiles": "CC(=O)c1ccc(OCCCC(=O)Nc2ccc(C)c(S(=O)(=O)N3CCOCC3)c2)cc1", "Potency": "inconclusive [inhibitor, single point]"}, {"smiles": "CC(=O)N/N=C/c1cc([N+](=O)[O-])ccc1OCCOc1ccccc1", "Potency": "inactive"}, {"smiles": "O=C(Nc1c(F)cc(F)cc1Br)c1cc(S(=O)(=O)N2CCN(c3ccccn3)CC2)ccc1F", "Potency": "inconclusive [inhibitor, single point]"}, {"smiles": "COc1ccc(C(=O)OCC(=O)Nc2ccc(OC(F)F)cc2)c(OC)c1", "Potency": "inactive"}, {"smiles": "Cc1cc(/C=N\\NC(=O)CC(=O)NC2CCCCC2)c(C)n1-c1ccc(Cl)c(Cl)c1", "Potency": "inactive"}, {"smiles": "NC(=O)c1cc([N+](=O)[O-])c(Cl)cc1NCc1ccccn1", "Potency": "inconclusive [inhibitor, single point]"}, {"smiles": "O=C(c1cccc(S(=O)(=O)N2CCCCCC2)c1)N1CCN(c2ccccc2F)CC1", "Potency": "active: 11.7 µM"}, {"smiles": "COc1ccc(CNCC(O)(c2ccc(Cl)cc2)c2ccc(Cl)cc2)cc1OC", "Potency": "active: 2.08 µM"}, {"smiles": "CN(C)S(=O)(=O)c1cc(C(=O)N2CCC(C(=O)O)(c3ccccc3)CC2)ccc1Cl", "Potency": "inconclusive [inhibitor, partial curve, poor fit]"}, {"smiles": "COc1ccc(N2CCN(C(=O)CCS(=O)(=O)c3ccc4c(c3)NC(=O)CO4)CC2)cc1", "Potency": "inactive"}]}]}
